Experimental data as given in PubChem BioAssay AID1030 (National Center for Advancing Translational Sciences (NCATS), 2008).
Screen size: about 220,000 compounds; about 16,000 (7.3%) were called active. Inconclusive results, whose numbers are uncertain, are shown with a selection of clear calls. The call rests on the fitted dose curve; in most records, active means well fitted inhibition curve with a large enough effect (not every such curve was filed as active); inconclusive means small, poorly fitted or top-dose-only effect, or another doubt; inactive means no such curve, though single readings can be large or run the other way. Potencies of inconclusive entries are left out as doubtful fits.

target: Aldehyde dehydrogenase 1A1 (Homo sapiens) (UniProt P00352); test: qHTS Assay for Inhibitors of Aldehyde Dehydrogenase 1 (ALDH1A1); settings: Purified ALDH1A1, NADH fluorescence, propionaldehyde substrate; series mostly up to 75.3 µM;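 on activity, negative = inhibition: plate controls were no enzyme wells and a reference inhibitor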
Potency means the concentration at half of the fitted maximal effect; tags describe the fitted curve by direction and shape.

Sequence of UniProt P00352 (P00352 whole entry, looked up): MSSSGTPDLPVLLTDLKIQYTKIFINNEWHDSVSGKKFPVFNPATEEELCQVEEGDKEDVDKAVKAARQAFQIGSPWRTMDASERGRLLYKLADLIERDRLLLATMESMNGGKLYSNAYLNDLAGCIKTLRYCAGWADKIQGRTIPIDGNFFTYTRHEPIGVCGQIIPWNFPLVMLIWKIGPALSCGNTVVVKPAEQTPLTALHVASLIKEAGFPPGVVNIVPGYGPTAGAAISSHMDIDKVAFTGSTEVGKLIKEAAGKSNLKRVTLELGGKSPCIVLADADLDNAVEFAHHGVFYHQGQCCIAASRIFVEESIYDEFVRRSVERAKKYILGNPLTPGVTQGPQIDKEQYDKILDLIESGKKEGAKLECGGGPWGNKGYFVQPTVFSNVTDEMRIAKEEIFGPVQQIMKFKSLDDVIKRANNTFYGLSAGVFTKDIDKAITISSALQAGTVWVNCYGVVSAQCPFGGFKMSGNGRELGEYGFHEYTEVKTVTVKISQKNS

SMILES | Potency | activity, negative = inhibition
O=C(O)/C=C/C(=O)Nc1ccc(OC(F)F)cc1 | inconclusive [inhibitor, single point] | 
CC1CC(=O)c2cnc(NCc3ccco3)nc2C1 (stereo not drawn) | inconclusive [inhibitor, partial curve] | 
Cc1ccc2cc3c(NC(=O)c4cccnc4)nn(C)c3nc2c1 | inconclusive [inhibitor, partial curve] | 
O=c1c(-c2nnc(SCc3ccc(Cl)c(Cl)c3)o2)cccn1Cc1ccccc1 | inconclusive [inhibitor, partial curve] | 
Fc1ccc(-c2csc(-c3ccc(C4SCCS4)cc3)n2)cc1F | inactive | 
CCc1ccc(-c2cc(C(F)(F)F)n3nc(C(=O)Nc4c(C)nn(Cc5ccccc5Cl)c4C)cc3n2)s1 | inconclusive [inhibitor, partial curve] | 
N#Cc1c(N2CCOCC2)nc(N)c2c(N)nc3c(c12)CC(CCl)O3 (stereo not drawn) | inconclusive [inhibitor, partial curve] | 
CC(C)Sc1nc(N)nc(-c2cccs2)c1C#N | inconclusive [inhibitor, single point] | 
CC(C)=CCC(C)(C)CNC(=O)NC1CCCCC1 | inactive | 
Cc1cc(NCc2ccccn2)n2nc(C)c(-c3ccccc3)c2n1 | inconclusive [inhibitor, single point] | 
O=C(/C=C/c1ccoc1)c1ccccc1O | inconclusive [inhibitor, single point] | 
COc1ccc(N2CCN(C(=O)CSc3ccc(C)cc3)CC2)cc1 | inactive | 
N#Cc1c(NC(=O)C(F)(F)F)sc2c3c(=O)c4ccccc4c(=O)c=3oc3ccccc3c12 |  | inactive: -19.2% [at 13.5 µM]
CCn1c(=O)c(=O)[nH]c2cc(C(=O)NC3CCCc4ccccc43)ccc21 (stereo not drawn) | inconclusive [inhibitor, single point] | 
Cc1ccc(C(=O)NC(=S)Nc2ccc3[nH]c(=O)[nH]c3c2)cc1 | inconclusive [inhibitor, single point] | 
O=[N+]([O-])c1cccc(N2Cc3ccccc3C2)c1 | inactive | 
CC(C)(C)NC(=S)NNC(=O)c1ccncc1 | inactive | 
O=C(Nc1ccccc1)c1cccc(N2C(=O)CCC2=O)c1 | inconclusive [inhibitor, single point] | 
O=C(Nc1cccc(F)c1)NC1CCN(Cc2ccccc2)CC1 | inconclusive [inhibitor, single point] | 
CCOc1ccc(CCNC(=O)CSc2nn(-c3ccc(C)c(Cl)c3)c(=S)s2)cc1OCC | active: 28.2 µM | 
Nc1cccc(N)c1 | inactive | 
C=CCN(N=Nc1cccc([N+](=O)[O-])c1)c1cccc([N+](=O)[O-])c1 | inconclusive [inhibitor, single point] | 
N=C(c1ccc([N+](=O)[O-])cc1)N1CCCCCC1 | inactive | 
COc1ccc2[nH]cc(CCNc3nc(-c4c(C)noc4C)nc4ccccc34)c2c1 | inconclusive [inhibitor, single point] | 
CC1(C)Cc2c(c(N3CCCC3)[nH]c(=S)c2C#N)CO1 | inconclusive [inhibitor, full curve] | 

SMILES | Potency | activity, negative = inhibition
O=c1c(C/C=C/c2ccccc2)c(O)ccn1Cc1ccc(Cl)cc1Cl | inactive | 
CCN(CC)S(=O)(=O)c1ccc(/C=C/C(=O)Nc2cccc(F)c2)cc1 | inconclusive [inhibitor, partial curve] | 
O=C(N/N=C/C=C/c1ccccc1)c1cc2c(ccc3ccccc32)o1 | inconclusive [inhibitor, single point] | 
Cc1ccc2c(CSc3nnc4ccccn34)cc(=O)oc2c1C | inconclusive [inhibitor, single point] | 
O=C(C1c2ccccc2C(=O)N2CCc3ccccc3C12)N1CCN(Cc2ccccc2)CC1 (stereo not drawn) | inconclusive [inhibitor, single point] | 
COc1ccc(CCNC(=O)CC2SC(N)=NC2=O)cc1OC (stereo not drawn) | inconclusive [inhibitor, single point] | 
Cc1c(CC(=O)O)c(=O)oc2cc(OCc3nn[nH]n3)ccc12 | inconclusive [inhibitor, partial curve] | 
O=C(CSC(=S)N1CCCCC1)c1ccccc1 | active: 31.6 µM | 
O=C(c1ccco1)N1CCN(CC(O)COc2ccc3oc4ccccc4c3c2)CC1 (stereo not drawn) | inactive | 
COc1nc(-c2ccc(Cl)cc2)ccc1-c1noc(-c2cccs2)n1 | inconclusive [inhibitor, single point] | 
CCn1c2ccccc2c2cc(NC(=O)CSc3nnc(-c4cccc(C)c4)o3)ccc21 | active: 17.8 µM | 
Cc1ccc(C(=O)/C=C/NCc2ccc(F)cc2)cc1 | active: 14.1 µM | 
COc1ccc(Cn2nnnc2C(c2ccc(F)cc2)N2CCN(C3CCCC3)CC2)cc1 (stereo not drawn) | inconclusive [inhibitor, partial curve] | 
Cc1ccnc(NS(=O)(=O)c2ccc(NC(=O)c3ccc(S(=O)(=O)N(C)C)cc3)cc2)n1 | inactive | 
CCOC(=O)c1cn(CC)c2cc(N3CCSCC3)c(F)cc2c1=O | inconclusive [inhibitor, partial curve] | 
COC(=O)/C=C1\SC(=Nc2ccc(OC)cc2)NC1=O | inactive | 
O=C(NCC1(c2ccccc2)CCCC1)c1ccc(Br)cc1 | inconclusive [inhibitor, single point] | 
O=C(Nc1cccc(C(=O)N2CCCCCC2)c1)c1ccco1 | inactive | 
O=C(CN(CCc1ccccc1)S(=O)(=O)c1ccc(Cl)cc1)N/N=C/c1ccccc1C(=O)O | inactive | 
COc1ccc(-n2nnnc2SCC(=O)Nc2ccc3c(c2)OCCO3)c(OC)c1 | active: 7.08 µM | 
CN1CCN(C(c2cccnc2)c2ccc3cccnc3c2O)CC1 (stereo not drawn) | active: 1.89 µM | 
CCCCc1nc2ccccc2c(NC(=O)CN(CC)CC)c1CCC | inconclusive [inhibitor, partial curve] | 
O=C(Cc1ccccc1)Nc1nnc(-c2cccs2)s1 | inconclusive [inhibitor, partial curve] | 
CC(Nc1nc(N2CCN(CCO)CC2)nc2ccccc12)c1ccccc1 (stereo not drawn) | inconclusive [inhibitor, partial curve] | 
COC(=O)C1C(=O)c2c([nH]c(C(=O)OCCSC)c2C)CC1C (stereo not drawn) | inconclusive [inhibitor, partial curve, poor fit] | 

SMILES | Potency | activity, negative = inhibition
CN(C)C(=S)Nn1c(-c2ccccc2)nc2ccccc2c1=O | inactive | 
O=C(CSc1nnc(NC(=O)Cc2ccccc2)s1)NCC1CCCO1 (stereo not drawn) | inactive | 
C=CCn1c(SCC(=O)C(C)(C)C)nnc1-c1cccs1 | active: 12.6 µM | 
Cc1nc(OCc2ccccc2)c2sc3nc4c(cc3c2n1)COC(C)(C)C4 | inconclusive [inhibitor, partial curve] | 
COc1ccc2c(c1)C(=O)[C@H](OC(=O)Nc1ccc(C)c(Br)c1)[C@@H](c1ccc(OC)c(Br)c1)O2 | inactive | 
N/C(=N\OC(=O)c1cccc2ccccc12)c1cccc([N+](=O)[O-])c1 | inactive | 
CCn1nc(C)c(Br)c1-c1nc(CS(=O)(=O)c2ccsc2)no1 | inconclusive [inhibitor, partial curve] | 
CC(C)(C)n1nnnc1C(c1cccnc1)N1CCN(c2cccc(C(F)(F)F)c2)CC1 (stereo not drawn) | inconclusive [inhibitor, single point] | 
O=C1c2ccccc2-c2onc3ccc(NCc4ccco4)c1c23 | inconclusive [inhibitor, single point] | 
COc1ccc(C2C(C(=O)OCC(=O)Nc3ccc(C)cc3)CCC(=O)N2c2ccc(OC)cc2)cc1 (stereo not drawn) | inconclusive [inhibitor, partial curve] | 
COc1ccc(CNC(=O)CCn2c(=O)oc3ccccc32)cc1 | inconclusive [inhibitor, single point] | 
COc1cccc(N2CCN(C(=O)c3ccc4nc(N5CCCCC5)sc4c3)CC2)c1 | inconclusive [inhibitor, partial curve] | 
O=C(Cc1cccs1)Nc1cccc(-c2ccc3nncn3n2)c1 | inconclusive [inhibitor, single point] | 
CCCCNC(=O)N1CCN(S(C)(=O)=O)CC1 | inactive | 
C=CCNCCCCOc1cccc(Br)c1 | inconclusive [inhibitor, single point] | 
Cc1cc(C)cc(NS(=O)(=O)c2ccc(NC(=S)NC(=O)c3cccs3)cc2)c1 | active: 10 µM | 
c1csc(C(c2nnnn2C2CCCC2)N2CCCC3(CCCCC3)C2)c1 (stereo not drawn) | inconclusive [inhibitor, partial curve] | 
CCOc1ccc(NCc2nnc(SCc3ccc(Cl)cc3)n2-c2ccccc2)cc1 | active: 15.8 µM | 
CCN1CCN(Cc2ccc(OCc3ccccc3)cc2)CC1 | inconclusive [inhibitor, single point] | 
CCCc1nc2oc3c(OCC)ncnc3c2c2c1COC(C)(C)C2 | inconclusive [inhibitor, partial curve] | 
O=C(C1CCCN(S(=O)(=O)c2cnc[nH]2)C1)N(CCc1ccccc1)Cc1ccccc1 (stereo not drawn) | active: 11.2 µM | 
COc1ccc(N2CC(C)Cn3c2nc2c3c(=O)n(Cc3ccc(F)cc3)c(=O)n2C)c(OC)c1 (stereo not drawn) | inconclusive [inhibitor, single point] | 
COc1ccc(CCNC(=O)CC2SC(=NCc3ccccc3OC)NC2=O)cc1 (stereo not drawn) | inconclusive [inhibitor, single point] | 
